In PubChem BioAssay AID686978 (National Center for Advancing Translational Sciences (NCATS), 2013):
About 64,000 (15%) of roughly 420,000 compounds were called active. The shares of active, inactive and inconclusive entries below differ from those in the screen. Calls follow the shape of the dose curve; as a rule, active = well fitted inhibition curve with a large enough effect; inconclusive = small, poorly fitted or top-dose-only effect; inactive = flat fitted curve, though single readings scatter. Potencies of inconclusive entries are left out as doubtful fits.

Experiment: qHTS for Inhibitors of human tyrosyl-DNA phosphodiesterase 1 (TDP1): qHTS in cells in absence of CPT; also: nearly all actives have a fitted effect of over 55% in size
Conditions: DT40 Tdp1-/- hTDP1 cells, no CPT, ATP luminescence, 48 h; activity change, negative = growth inhibition: at 46.2 µM (top of the series) unless noted
Procedure, shortened: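 Growth kinetics read by CellTiter-Glo luminescence after ≥48 hr at 37 °C. Cells: DT40 Tdp1-/- stably carrying human TDP1, 400 per well, compound exposure in the absence of CPT (DMSO vehicle).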
% is scaled to controls: 0 for no effect and ±100 for the full control effect; potency is read from the fitted curve at half-maximal effect; tags tell the direction and shape of the fitted curve.

Row | SMILES | Potency | activity change, negative = growth inhibition
1 | Cc1cc(C)c(NC(=O)C2CCN(c3nc4ccccc4n4cccc34)CC2)c(C)c1 | inconclusive [inhibitor, single point] | 
2 | CCOC(=O)Cc1cc(-c2ccc(O)cc2)nc2ccc3ccccc3c12 | inconclusive [inhibitor, single point] | 
3 | CCOC(=O)c1cc(-c2ccc(OC)cc2)nc2c1c(C)nn2CCC(N)=S | inconclusive [inhibitor, single point] | 
4 | Cc1cc(C)c(OCC(=O)Nc2ccccc2N2CCOCC2)c(C)c1 | active: 22.4 µM | 
5 | COc1ccccc1C(=O)C1CCCN(C(=O)c2ccc3c(c2)OCCO3)C1 (centres undefined) | inconclusive [inhibitor, partial curve] | 
6 | O=C(Nc1cccc(-c2nc3cccnc3s2)c1)c1cccnc1Cl | inconclusive [inhibitor, partial curve] | 
7 | Cc1ccc(C)c(S(=O)(=O)N2CCCC2CNC(=O)C(=O)NCc2ccco2)c1 (centres undefined) | inconclusive [inhibitor, single point] | 
8 | COc1ccc(C)c2sc(=NC(=O)c3cccc(N4C(=O)CCC4=O)c3)n(C)c12 |  | inactive: 2.74%
9 | COC(=O)C1CCN(C(=O)COC(=O)c2ccc(N3CCCC3=O)cc2)CC1 |  | inactive: -0.253%
10 | CCC(=O)c1c(NC(C)C)cc(C)oc1=O |  | inactive: 6.24%
11 | Cc1nn(C)c(Oc2ccccc2)c1CCNC(=O)CC(C)C | inconclusive [inhibitor, partial curve, poor fit] | 
12 | Brc1cccc(-c2nnn3c2nc(NCc2ccc4c(c2)OCO4)c2ccccc23)c1 | inconclusive [inhibitor, single point] | 
13 | O=C(CC1C[C@H](C(=O)N2CCCCC2)[C@@]2(CCc3ccccc3)c3[nH]c4ccccc4c3CCN2C1=O)NCc1cccc(C(F)(F)F)c1 (some centres undefined) | active: 16.4 µM | 
14 | CCOC(=O)c1c(-c2ccc(C)cc2)csc1/N=C/N(C)C | inconclusive [inhibitor, single point] | 
15 | Cc1ccccc1-c1cncnc1NCc1cccs1 | inconclusive [inhibitor, single point] | 
16 | CCC(=O)Nc1cc(C(=O)O)ccc1Sc1ccc(Cl)cc1 |  | inactive: -4.45%
17 | CC1(C)C2CCC(C2)C1(C)N=C1OC(CCl)CS1 (centres undefined) | inconclusive [inhibitor, partial curve, poor fit] | 
18 | COc1ccc(CNC(=O)c2cc(=O)c3cc(C)cc(C)c3o2)cc1 |  | inactive: 2.35%
19 | COc1ccc(-c2csc3nc(C)nc(N4CCN(C(C)=O)CC4)c23)cc1OC | inconclusive [inhibitor, single point] | 
20 | Cc1ccc(OCCSc2nc3ccccc3n2CCC(=O)O)c(C(C)C)c1 | inconclusive [inhibitor, full curve] | 
21 | COc1ccc(C(=O)c2c(O)cc(-c3ccc(OC)cc3)oc2=O)cc1 |  | inactive: -0.281%
22 | CCOc1ccccc1CNC(=O)c1c([N+](=O)[O-])c(C)nn1C | inconclusive [inhibitor, single point] | 

Row | SMILES | Potency | activity change, negative = growth inhibition
23 | O=C(NCCc1ccccc1)Oc1ccc(Cl)cc1 | inconclusive [inhibitor, single point] | 
24 | NC(=O)C1CN(C(=O)c2cccc(S(=O)(=O)N3CCc4ccccc43)c2)c2ccccc2O1 (centres undefined) | inconclusive [inhibitor, single point] | 
25 | CC(=O)c1c(C)[nH]c(C(=O)COC(=O)CCCOc2ccccc2)c1C |  | inactive: -2.62%
26 | CC(C)NC(=O)N1CCCN(c2nc3ccc(Cl)cc3s2)CC1 | inconclusive [inhibitor, single point] | 
27 | COc1ccc2[nH]c(C)c(CCN(Cc3cccs3)C(=S)Nc3ccccc3)c2c1 | inconclusive [inhibitor, single point] | 
28 | CC(C)NC(=O)C1CCC(Cn2c(=O)c3sccc3n(Cc3ccc(F)cc3)c2=O)CC1 (centres undefined) | inconclusive [inhibitor, single point] | 
29 | O=C(NCC(=O)N1CC=C(c2ccccc2)CC1)c1ccco1 |  | inactive: 12%
30 | COc1ccc(-n2ncc(C(=O)NCc3ccco3)c2C2CCN(C(=O)OC(C)(C)C)CC2)cc1 | inconclusive [inhibitor, single point] | 
31 | CCCCC(CCC(=O)O)(C(=O)OCC)c1csc(Nc2ccc(C)cc2)n1 (centres undefined) |  | inactive: -5.6%
32 | COc1cccc(CNS(=O)(=O)c2ccc3c(c2)CC(C)N3C(C)=O)c1 (centres undefined) | inconclusive [inhibitor, partial curve] | 
33 | COc1ccc(OC)c(S(=O)(=O)N2CCC3(CC2)CC(=O)c2ccccc2O3)c1 | inconclusive [inhibitor, single point] | 
34 | CCCCCCCCN1C(=O)[C@H](CC(=O)NCCCOC)C[C@@]2(C(=O)OC)CC(C)(C)CC=C12 | active: 14.6 µM | 
35 | O=C(Nc1cccnc1)c1ccc(COc2ccccc2Br)o1 | inconclusive [inhibitor, single point] | 
36 | O=C(COC(=O)c1ccc(Cl)c(S(=O)(=O)N2CCCCCC2)c1)NCc1ccccc1 | inconclusive [inhibitor, single point] | 
37 | O=C(Nc1cccnc1)c1cc2cc(Br)ccc2o1 |  | inactive: -17%
38 | CC(=O)N(C1=C(N2CCOCC2)C(=O)c2ccccc2C1=O)c1ccc(C(=O)O)cc1 | inconclusive [inhibitor, single point] | 
39 | OC[C@@H]1CN(Cc2ccc3c(c2)OCO3)C[C@H](n2cnc3c(N4CCCC4)ncnc32)O1 | inconclusive [inhibitor, single point] | 
40 | O=C(NCC(c1cccnc1)N1CCc2ccccc21)c1cccc(Br)c1 (centres undefined) | active: 13 µM | 
41 | O=C1c2ccccc2NC(c2cccc(O)c2)N1NS(=O)(=O)c1ccccc1 (centres undefined) |  | inactive: -31.6%
42 | CCOc1ccc(CCNC(=O)c2cc3cccc4c3n2CCS4)cc1 | inconclusive [inhibitor, single point] | 
43 | Cc1nc2ccccc2c(=O)n1NC(=O)C1CCC(C(C)(C)C)CC1 (centres undefined) | inconclusive [inhibitor, single point] | 
44 | COC(=O)c1c(-c2ccc(Cl)cc2)noc1N1CCN(c2cc(C)ccc2C)CC1 | active: 20.6 µM | 
